Laboratory results as given in PubChem BioAssay AID1159614 (National Center for Advancing Translational Sciences (NCATS), 2016).
The campaign covered roughly 45,000 compounds. About 65 (0.1%) were called active. Calls follow the shape of the dose curve; as a rule, active = well fitted activation curve with a large enough effect; inconclusive = small, poorly fitted or top-dose-only effect; inactive = no such curve, though single readings can be large or run the other way. This is one part of the list.

target: Galactocerebrosidase (Homo sapiens) (UniProt P54803); test: A Novel Cell-Based Assay to Identify Small Molecules for B -Galactocerebrosidase; conditions: 145M-Twi-hGALC-G270D cells (Twitcher mouse brain line with human GALC G270D), HMU-beta-Gal fluorescence, 48 h; series mostly up to 57.5 µM; activation: at the top concentration; also: 0% is about no effect; nearly all actives have a fitted effect of over 65% in size
Chain of UniProt P54803 (P54803 whole entry, looked up): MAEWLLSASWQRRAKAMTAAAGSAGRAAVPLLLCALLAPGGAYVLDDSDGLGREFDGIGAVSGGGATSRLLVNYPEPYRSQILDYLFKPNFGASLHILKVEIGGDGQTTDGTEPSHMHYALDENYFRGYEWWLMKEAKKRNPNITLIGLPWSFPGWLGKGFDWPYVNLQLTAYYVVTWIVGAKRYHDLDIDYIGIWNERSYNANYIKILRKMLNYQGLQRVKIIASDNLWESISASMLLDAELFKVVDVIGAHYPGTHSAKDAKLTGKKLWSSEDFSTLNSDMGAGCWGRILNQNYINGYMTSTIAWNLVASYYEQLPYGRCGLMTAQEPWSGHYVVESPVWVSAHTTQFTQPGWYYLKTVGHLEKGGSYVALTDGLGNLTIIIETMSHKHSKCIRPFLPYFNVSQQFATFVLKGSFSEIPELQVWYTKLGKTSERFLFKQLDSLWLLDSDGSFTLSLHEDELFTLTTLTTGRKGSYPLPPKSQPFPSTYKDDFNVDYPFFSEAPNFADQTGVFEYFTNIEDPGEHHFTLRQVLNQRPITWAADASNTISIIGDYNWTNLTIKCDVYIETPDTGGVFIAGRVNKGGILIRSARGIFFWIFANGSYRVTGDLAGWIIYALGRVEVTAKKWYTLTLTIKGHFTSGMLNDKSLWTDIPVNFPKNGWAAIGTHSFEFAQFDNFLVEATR
Procedure, shortened: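 Live 145M-Twi cells (Twitcher mouse brain-derived, GALC-null) stably expressing human GALC-G270D, with a wild-type GALC line, were compound-treated. Residual GALC activity was then read as fluorescence from 0.1 mM final HMU-β-gal at pH 5.2; higher signal means activation.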

activation, inactive:
CCOc1ccc(C(=O)Nc2ccc(-c3nc4cc(CC)ccc4o3)cc2)cc1 -12.3%, CC(NC(=O)CCn1c(=O)c2cccn2c2ccc(F)cc21)c1ccccc1 (stereo not drawn) -10.6%, O=C(c1cc2c(=O)[nH]c3ccccc3c2s1)N1CCN(c2ccc(F)cc2)CC1 -2.02%, O=C(CCn1c(=O)c2cccn2c2ccc(F)cc21)NCCc1ccccc1Cl -12.3%, COC(=O)c1ccc(NC(=O)Nc2nnc(N(C)C3CCCCC3)s2)cc1 -13.6%, CCCOc1ccc(Nc2nc(SC)ncc2C(=O)OCC)cc1 -25%, COc1ccccc1NC(=O)Cn1c(=O)n(Cc2ccccc2)c(=O)c2ccccc21 -17.9%, COc1ccc(NC(=O)C(=O)NCCc2csc(-c3ccc(Cl)cc3)n2)cc1 -4.42%, COc1cccc2c1Oc1nc(-c3ccccc3)nc(SCC(=O)N3CCCCC3)c1C2 -12.7%, COc1cccc(NC(=O)c2oc3ccccc3c2NC(=O)C23CC4CC(CC(C4)C2)C3)c1 -20.6%, COC(=O)c1ccc(NC(=O)Cc2coc3cc(C)ccc23)cc1 -5.49%, Cc1cc(C)cc(-n2c(SCC(=O)Nc3nnc(C)s3)nc3c([nH]c4ccccc43)c2=O)c1 -22.1%, COc1ccc(-c2nc3nc(C)cc(Nc4ccc(C(C)=O)cc4)n3n2)cc1 -6.52%, Cc1coc2c(C)c3oc(=O)c(CC(=O)N4CCCCC4)c(C)c3cc12 -15.2%, COC(=O)CSc1ccc2nnc(CCNS(=O)(=O)c3ccc(C)cc3)n2n1 -9.71%, CCOC(=O)C1=C(CN2CCN(c3ccccc3F)CC2)NC(=O)NC1c1ccc(OC)cc1 (stereo not drawn) -13.3%, CCc1cccc(C)c1Nc1c(-c2cccc(O)c2)nc2cnccn12 -5.65%, O=C(CCS(=O)(=O)c1cc2c3c(c1)CCN3C(=O)CC2)NCc1ccc(Cl)cc1 -3.35%, COc1ccc(/C=C/c2nc(C#N)c(NC3CCCCC3)o2)cc1OC -7.77%, CCOc1ccccc1NC(=O)Cn1nc2c3cc(F)ccc3n(Cc3cccc(C)c3)cc-2c1=O -31.8%, COc1ccccc1CNC(=O)Cn1c(-c2cccs2)cc2cc(F)ccc21 -12%, Cc1ccc(C)c(NC(=O)C(=O)NCCc2csc(-c3cccc(F)c3)n2)c1 -20.2%, Cn1c(=O)cc(SCC(=O)Nc2cccc(C#N)c2)c2ccc(Cl)cc21 -12.2%, CCOC(=O)c1ccc(NC(=O)c2cc3c(=O)n(C)c4ccccc4c3n2C)cc1 -5.23%, Cc1nc2ccccn2c(=O)c1NC(=O)c1ccccc1Cl -8.33%, COc1cc2c(C(=O)N3CCN(c4ccc(C)cc4)C(C)C3)cn(CC(C)C)c(=O)c2cc1OC (stereo not drawn) -10.1%, COc1cccc(NC(=O)CCc2nc(-c3cc(OC)c(OC)c(OC)c3)no2)c1 -19%, COc1ccc(CCNC(=O)c2cc(-c3ccc(Cl)cc3)on2)cc1OC -15.1%, COc1ccc(C(=O)N2CCC(c3ccncc3)CC2)cc1OC -10.8%, CCc1ccc(NC(=O)Cn2ccn(-c3cccc(Cl)c3)c(=O)c2=O)cc1 -7.49%, Cc1ccc(CN2CCc3nc(N4CCN(C)CC4)ncc3C2)cc1 -3.87%, COC(=O)C1=C(C)NC(C)=C(C(=O)O[C@@H]2CCCN(Cc3ccccc3)C2)[C@@H]1c1cccc([N+](=O)[O-])c1 -11%, COc1ccc(N2CCN(C(=O)Cc3noc4ccc(C)cc34)CC2)cc1 -11.1%, COc1cc2c(cc1OC)C(COc1ccc3c(C)cc(=O)oc3c1)N(C(=O)c1ccc(C)c(C)c1)CC2 (stereo not drawn) 4.52%, COC(=O)c1ccc(OC)c(CN2CCCN(Cc3ccc(C)cc3)S2(=O)=O)c1 -33.4%, Cc1nc2sccn2c(=O)c1S(=O)(=O)NCc1ccccc1 -12.4%, COc1ccc(Nc2nnc(-c3ccc(C)c(S(=O)(=O)N4CCN(C)CC4)c3)c3ccccc23)cc1 -15.5%, CCOc1ccccc1C1CC(=O)NC(C)=C1C(=O)OCc1ccc(C)cc1 (stereo not drawn) -4.96%, Cc1ccc(C)c(N2CCN(C(=O)c3ccc4c(c3)c(C)c(C)n4C)CC2)c1 -24.8%, Cc1cccc(C)c1OCC(=O)N(Cc1ccc(Cl)cc1)CC1CCCO1 (stereo not drawn) 0.4%, Cc1oc2c(c1C(=O)Nc1ccc(Cl)cc1F)C1=NCCN1C=N2 8.95%, COc1ccc(Cl)cc1C(=O)NCC(c1ccc(N(C)C)cc1)N1CCOCC1 (stereo not drawn) -13.6%, CC(C)c1nn2c(=O)cc(COC(=O)c3ccccc3NC(=O)c3cccs3)nc2s1 -16.6%, O=C(O)CCNC(=O)c1ccccc1 -15.7%, Cn1c(=O)c2c(nc(NCCc3ccccc3)n2Cc2ccc(Cl)c(Cl)c2)n(C)c1=O -14.8%, CC1CCCN(c2csc3ccccc3c2=O)C1 (stereo not drawn) -18.7%, CCCN(Cc1cccs1)C(=O)Nc1ccccc1C -9.5%, O=C(N[C@H](CO)[C@H](O)c1ccc([N+](=O)[O-])cc1)C(Cl)Cl -14.9% [at 114 µM], COc1ccc(S(=O)(=O)NCCc2cn3ccsc3n2)cc1OC -4%, CCOc1ccc(N(Cc2cc3cc(C)ccc3[nH]c2=O)C(=O)c2cccc(Cl)c2)cc1 26.6%, COc1ccc(NC(=O)CC2C(=O)N(c3ccc(OC)cc3)C(=O)N2C2CCCCC2)cc1 (stereo not drawn) -15.1%, Cc1c(Cl)cccc1-n1c(SCC(=O)NCc2ccccc2)nc2n[nH]c(C)c2c1=N -6.22%, COc1cccc(C(=O)N2CC(=O)Nc3ccc(C)cc3C2c2ccc(F)cc2)c1OC (stereo not drawn) -21.3%, Cc1ccc(Nc2cc(=O)[nH]c(=O)[nH]2)cc1C -10%, Cc1ccc2oc(=O)c(-c3nc4ccc(C)cc4[nH]3)cc2c1 -6.46%, COc1ccc(OC)c(CNC(=O)CCc2c(C)nc3c(c2C)c(=O)n(C)c(=O)n3C)c1 -14.2%, CCCOc1ccc(CNC(=O)C(C)n2nc(C)n3c(cc4occc43)c2=O)cc1 (stereo not drawn) -13.1%, COc1ccc(Cl)cc1NC(=O)CSc1nnc(C)n2c1cc1sccc12 -9.23%, Cc1ccc(C(=O)N2c3ncnn3C3(CCCCC3)[C@@H]3CCCC[C@@H]32)cc1 -10%, Cn1c2c(c(=O)n(C)c1=O)C(c1cc(Br)ccc1F)CC(=O)N2 (stereo not drawn) -11.4%, Cc1nc2cc(-c3ccccc3)nn2c(C)c1CCC(=O)NCCc1ccccc1 -4.12%, Cc1oc2ncnc(N3CCCCC3)c2c1C(=O)Nc1cccc(Cl)c1C 6.95%, CCc1ccccc1NS(=O)(=O)c1ccc(-c2coc(C)n2)cc1 -33.1%, CCC1CCCCN1S(=O)(=O)c1ccc(NC(=O)c2nc(SC)ncc2Cl)cc1 (stereo not drawn) -17.7%, Cc1cccc(CCNC(=O)c2ccc3c(c2)nc2n3CCOC2)c1 -29.3%, COC(=O)c1ccc(NC(=O)c2cc(S(=O)(=O)N3CCC(C)CC3)cn2C)cc1 -31.5%, CCOC(=O)c1ccc(Nc2nc(N)c3cc(OC)c(OC)cc3n2)cc1 -3.22%, Cc1ccc2[nH]c(CSc3nnc(NC(=O)COc4ccccc4C)s3)cc(=O)c2c1 -2.09%, COc1ccc(Nc2cc(C(=O)NCCCN(C)c3ccccc3)c3ccccc3n2)c(OC)c1 -17.5%, COc1ccc(CC(=O)Nc2ccc(-c3nc4ccccc4s3)cc2Cl)cc1OC 9.76%, CCCOCc1cc(CN2CCN(c3cccc(Cl)c3)CC2)c(O)c2ncccc12 -10.6%, Cc1cccc(C)c1NC(=O)c1c(C)oc2c1C1=NCCN1C=N2 -12.2%, CN1CCC[C@@H]1Cc1c[nH]c2ccc(CCS(=O)(=O)c3ccccc3)cc12 -8.75%, Cc1nn(C)c2c1c(-c1ccccc1)cc(=O)n2C(C)C(=O)NCCc1ccc(Cl)cc1 (stereo not drawn) -13%, COc1ccc(C(=O)c2oc3ccccc3c2NC(=O)COc2cccc(C)c2)cc1 -14.1%, CCN(CC)CCNC(=O)c1ccc2c(c1)NC(=O)C(CS(=O)(=O)Cc1ccc(F)cc1Cl)N2 (stereo not drawn) 22.5%, CCn1cc(C(=O)NCCCN2CCC(C)CC2)c(=O)c2cc(S(=O)(=O)N(C)C3CCCCC3)ccc21 -7.96%, COc1ccc(-c2ccc3c(N)c(C(=O)Nc4ccc(C)cc4C)sc3n2)cc1OC -10.1%, CC(C)c1nc2ccc(C(=O)NCc3ccc(F)cc3)cc2o1 -11.4%, COc1ccc(S(=O)(=O)NCC(c2ccco2)N2CCN(c3ccccc3F)CC2)cc1OC (stereo not drawn) -13.9%, COc1ccc(-n2c(SCC(=O)Nc3cc(C)cc(C)c3)nc3c(oc4ccccc43)c2=O)cc1 -12.2%, COc1ccccc1N1CCN(C(=O)c2nc(-c3ccc(C)cc3)n3c2CCCCC3)CC1 -12.5%, CCOc1ccc(-c2cc(NC(=O)c3c(F)cccc3F)c(C(=O)OC)s2)cc1 -17.4%, CC1CCN(C(=O)c2ccccc2NC(=O)c2nsc3ccccc23)CC1 -3.98%, CCc1cccc(NC(=O)C2CCCN2S(=O)(=O)c2ccc3c(c2)n(C)c(=O)c(=O)n3C)c1 (stereo not drawn) -10.9%, Cc1cc(C)c(/C=C/c2onc(C)c2S(=O)(=O)N2CCC(C(=O)NCC(C)c3ccccc3)CC2)c(C)c1 (stereo not drawn) -27.4%, CC(C)[N+](C)(CCOC(=O)C1c2ccccc2Oc2ccccc21)C(C)C -8.2%, Cc1cc(NC(=O)CC(C)C)cc(-c2nc3ncccc3o2)c1O 3.44%, Cc1ccc(Cl)cc1NC(=O)c1cnn2c(C(F)F)cc(-c3ccccc3)nc12 -9.85%, COc1ccc(NC(=O)c2cc(S(=O)(=O)N3CCCCC3)c[nH]2)cc1Cl -0.187%, COC(=O)c1c(NC(=O)C(C)Oc2ccc(Cl)cc2Cl)sc2c1CCCC2 (stereo not drawn) -0.106%, CCOc1ccc2c(c1)[C@@H]1C=CC[C@@H]1[C@H](c1ccccc1Cl)N2 -13.4%, Cc1ccc(CCNC(=O)CN2C(=O)COc3ccc(S(=O)(=O)N4CCCCC4)cc32)cc1 -13.9%, Cc1ccc(Nc2nnc(-c3ccc(C)c(S(=O)(=O)N4CCCCC4)c3)c3ccccc23)cc1 -5.21%, Cc1cccc(-c2nc3c(cnn3-c3ccccc3)c(=O)n2-c2cccc(Cl)c2)c1 4.68%, O=C(NCCc1ccccc1)c1ccc2c(c1)N(Cc1ccccc1)C(=O)c1ccccc1S2=O (stereo not drawn) -13.1%, Cc1ccc(CNC(C)c2ccccc2)s1 (stereo not drawn) -8%, COc1ccc(OC)c(NCc2cccn2-c2nnc(N3CCC(C)CC3)s2)c1 -19.5%
